# Experimental data reported in publication PMC12820563, “FoxP3 forms a head-to-head dimer in vivo and stabilizes its multimerization on adjacent microsatellites”.
# The list shows a part of the results.
# Target: T1, MBP-FoxP1dN (Mus musculus, UniProt P58462 326-579)
# T1 sequence: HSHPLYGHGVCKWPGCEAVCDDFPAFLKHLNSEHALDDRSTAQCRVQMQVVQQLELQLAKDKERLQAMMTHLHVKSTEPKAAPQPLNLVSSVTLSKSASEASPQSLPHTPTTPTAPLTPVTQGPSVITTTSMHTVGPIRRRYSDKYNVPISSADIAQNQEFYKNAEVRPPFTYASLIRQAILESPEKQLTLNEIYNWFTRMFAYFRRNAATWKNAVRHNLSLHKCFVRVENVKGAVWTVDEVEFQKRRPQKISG
# Assay: PD-seq (MBP pull-down with sequencing); 20 mM Tris-HCl pH 7.5, 100 mM NaCl, 1.5 mM MgCl2, 0.4 uM protein, 0.1 uM dsDNA library, 30 min, room temperature, amylose pull-down; high values mean tight binding
# Conditions: protein: recombinant; tags: His6-MBP; chain copies: 2; dsDNA, one strand shown
# How it was run: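 Binding is the reads-per-million enrichment of pull-down relative to input, pooled across replicates. For this, 0.4 µM His6-MBP-tagged mouse FoxP3 or FoxP1 fragment lacking the N-terminus, made in E. coli, was incubated with 0.1 µM Klenow-filled double-stranded degenerate DNA library for 30 min at room temperature in Tris pH 7.5 buffer with NaCl and MgCl2. Complexes bound to amylose resin were washed three times before proteinase K released the DNA for PCR barcoding and Illumina sequencing.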
row,Sequence,binding signal
1,GATGATTGTTCTCCCAGCTGATGAATTTCTAACATCGAGTAAACAAATTTTCCTAATCTTTCTGTTCAAGCGCCATCTAC,1.18 RPM ratio (pull-down/input)
2,GATGATTGTTCTCCCAGCTGATGAATTCGGGGTTTCGAGTAAACAAATTTTCCTAATCTTTCTGTTCAAGCGCCATCTAC,0.846 RPM ratio (pull-down/input)
3,GATGATTGTTCTCCCAGCTGATGAATTAGCTCCGTCGAGTAAACAAATTTTCCTAATCTTTCTGTTCAAGCGCCATCTAC,0.786 RPM ratio (pull-down/input)
4,GATGATTGTTCTCCCAGCTGATGAATTGATACGTTCGAGTAAACAAATTTTCCTAATCTTTCTGTTCAAGCGCCATCTAC,1.2 RPM ratio (pull-down/input)
5,GATGATTGTTCTCCCAGCTGATGAATTCGGTAGATCGAGTAAACAAATTTTCCTAATCTTTCTGTTCAAGCGCCATCTAC,0.874 RPM ratio (pull-down/input)
6,GATGATTGTTCTCCCAGCTGATGAATTGTGTGGCTCGAGTAAACAAATTTTCCTAATCTTTCTGTTCAAGCGCCATCTAC,1.11 RPM ratio (pull-down/input)
7,GATGATTGTTCTCCCAGCTGATGAATTACGCAGCTCGAGTAAACAAATTTTCCTAATCTTTCTGTTCAAGCGCCATCTAC,0.972 RPM ratio (pull-down/input)
8,GATGATTGTTCTCCCAGCTGATGAATTGGAGTATTCGAGTAAACAAATTTTCCTAATCTTTCTGTTCAAGCGCCATCTAC,1.03 RPM ratio (pull-down/input)
9,GATGATTGTTCTCCCAGCTGATGAATTCTAGAGCTCGAGTAAACAAATTTTCCTAATCTTTCTGTTCAAGCGCCATCTAC,0.762 RPM ratio (pull-down/input)
10,GATGATTGTTCTCCCAGCTGATGAATTGCGCTCCTCGAGTAAACAAATTTTCCTAATCTTTCTGTTCAAGCGCCATCTAC,1.03 RPM ratio (pull-down/input)
11,GATGATTGTTCTCCCAGCTGATGAATTATAGTTATCGAGTAAACAAATTTTCCTAATCTTTCTGTTCAAGCGCCATCTAC,1.19 RPM ratio (pull-down/input)
12,GATGATTGTTCTCCCAGCTGATGAATTGTTAAATTCGAGTAAACAAATTTTCCTAATCTTTCTGTTCAAGCGCCATCTAC,1.16 RPM ratio (pull-down/input)
13,GATGATTGTTCTCCCAGCTGATGAATTGGGGTCGTCGAGTAAACAAATTTTCCTAATCTTTCTGTTCAAGCGCCATCTAC,0.814 RPM ratio (pull-down/input)
14,GATGATTGTTCTCCCAGCTGATGAATTGTTGATGTCGAGTAAACAAATTTTCCTAATCTTTCTGTTCAAGCGCCATCTAC,2.27 RPM ratio (pull-down/input)
15,GATGATTGTTCTCCCAGCTGATGAATTGTTTTAATCGAGTAAACAAATTTTCCTAATCTTTCTGTTCAAGCGCCATCTAC,1.38 RPM ratio (pull-down/input)
16,GATGATTGTTCTCCCAGCTGATGAATTGTCGTGGTCGAGTAAACAAATTTTCCTAATCTTTCTGTTCAAGCGCCATCTAC,0.937 RPM ratio (pull-down/input)
17,GATGATTGTTCTCCCAGCTGATGAATTGACTGCATCGAGTAAACAAATTTTCCTAATCTTTCTGTTCAAGCGCCATCTAC,1.26 RPM ratio (pull-down/input)
18,GATGATTGTTCTCCCAGCTGATGAATTCGGCGCGTCGAGTAAACAAATTTTCCTAATCTTTCTGTTCAAGCGCCATCTAC,0.928 RPM ratio (pull-down/input)
19,GATGATTGTTCTCCCAGCTGATGAATTAGTGGGTTCGAGTAAACAAATTTTCCTAATCTTTCTGTTCAAGCGCCATCTAC,0.904 RPM ratio (pull-down/input)
20,GATGATTGTTCTCCCAGCTGATGAATTCTGCTGGTCGAGTAAACAAATTTTCCTAATCTTTCTGTTCAAGCGCCATCTAC,0.85 RPM ratio (pull-down/input)
21,GATGATTGTTCTCCCAGCTGATGAATTTGCCGTATCGAGTAAACAAATTTTCCTAATCTTTCTGTTCAAGCGCCATCTAC,1.01 RPM ratio (pull-down/input)

row,Sequence,binding signal
1,GATGATTGTTCTCCCAGCTGATGAATTACAATCGTCGAGTAAACAAATTTTCCTAATCTTTCTGTTCAAGCGCCATCTAC,1.15 RPM ratio (pull-down/input)
2,GATGATTGTTCTCCCAGCTGATGAATTAATTGGATCGAGTAAACAAATTTTCCTAATCTTTCTGTTCAAGCGCCATCTAC,0.933 RPM ratio (pull-down/input)
3,GATGATTGTTCTCCCAGCTGATGAATTAATCCATTCGAGTAAACAAATTTTCCTAATCTTTCTGTTCAAGCGCCATCTAC,0.904 RPM ratio (pull-down/input)
4,GATGATTGTTCTCCCAGCTGATGAATTAGATGAATCGAGTAAACAAATTTTCCTAATCTTTCTGTTCAAGCGCCATCTAC,1.01 RPM ratio (pull-down/input)
5,GATGATTGTTCTCCCAGCTGATGAATTCTCCCGATCGAGTAAACAAATTTTCCTAATCTTTCTGTTCAAGCGCCATCTAC,0.902 RPM ratio (pull-down/input)
6,GATGATTGTTCTCCCAGCTGATGAATTCGCCGGGTCGAGTAAACAAATTTTCCTAATCTTTCTGTTCAAGCGCCATCTAC,0.782 RPM ratio (pull-down/input)
7,GATGATTGTTCTCCCAGCTGATGAATTTATATAATCGAGTAAACAAATTTTCCTAATCTTTCTGTTCAAGCGCCATCTAC,1.3 RPM ratio (pull-down/input)
8,GATGATTGTTCTCCCAGCTGATGAATTAGTTAGCTCGAGTAAACAAATTTTCCTAATCTTTCTGTTCAAGCGCCATCTAC,0.932 RPM ratio (pull-down/input)
9,GATGATTGTTCTCCCAGCTGATGAATTCCCAGTATCGAGTAAACAAATTTTCCTAATCTTTCTGTTCAAGCGCCATCTAC,0.904 RPM ratio (pull-down/input)
10,GATGATTGTTCTCCCAGCTGATGAATTTCGGCTCTCGAGTAAACAAATTTTCCTAATCTTTCTGTTCAAGCGCCATCTAC,0.854 RPM ratio (pull-down/input)
11,GATGATTGTTCTCCCAGCTGATGAATTACTCCGATCGAGTAAACAAATTTTCCTAATCTTTCTGTTCAAGCGCCATCTAC,0.985 RPM ratio (pull-down/input)
12,GATGATTGTTCTCCCAGCTGATGAATTGCTATTTTCGAGTAAACAAATTTTCCTAATCTTTCTGTTCAAGCGCCATCTAC,2.22 RPM ratio (pull-down/input)
13,GATGATTGTTCTCCCAGCTGATGAATTTCCTGAGTCGAGTAAACAAATTTTCCTAATCTTTCTGTTCAAGCGCCATCTAC,0.85 RPM ratio (pull-down/input)
14,GATGATTGTTCTCCCAGCTGATGAATTGACCTTATCGAGTAAACAAATTTTCCTAATCTTTCTGTTCAAGCGCCATCTAC,1.04 RPM ratio (pull-down/input)
15,GATGATTGTTCTCCCAGCTGATGAATTCGCCTTTTCGAGTAAACAAATTTTCCTAATCTTTCTGTTCAAGCGCCATCTAC,0.941 RPM ratio (pull-down/input)
16,GATGATTGTTCTCCCAGCTGATGAATTGGAGAGATCGAGTAAACAAATTTTCCTAATCTTTCTGTTCAAGCGCCATCTAC,0.828 RPM ratio (pull-down/input)
17,GATGATTGTTCTCCCAGCTGATGAATTTACTGTTTCGAGTAAACAAATTTTCCTAATCTTTCTGTTCAAGCGCCATCTAC,1.35 RPM ratio (pull-down/input)
18,GATGATTGTTCTCCCAGCTGATGAATTACGACATTCGAGTAAACAAATTTTCCTAATCTTTCTGTTCAAGCGCCATCTAC,1.11 RPM ratio (pull-down/input)
19,GATGATTGTTCTCCCAGCTGATGAATTCAGCTAATCGAGTAAACAAATTTTCCTAATCTTTCTGTTCAAGCGCCATCTAC,0.917 RPM ratio (pull-down/input)
20,GATGATTGTTCTCCCAGCTGATGAATTGGTTAACTCGAGTAAACAAATTTTCCTAATCTTTCTGTTCAAGCGCCATCTAC,1.01 RPM ratio (pull-down/input)
21,GATGATTGTTCTCCCAGCTGATGAATTTGGCGGTTCGAGTAAACAAATTTTCCTAATCTTTCTGTTCAAGCGCCATCTAC,0.802 RPM ratio (pull-down/input)

row,Sequence,binding signal
1,GATGATTGTTCTCCCAGCTGATGAATTCGACGCGTCGAGTAAACAAATTTTCCTAATCTTTCTGTTCAAGCGCCATCTAC,0.902 RPM ratio (pull-down/input)
2,GATGATTGTTCTCCCAGCTGATGAATTATGAATGTCGAGTAAACAAATTTTCCTAATCTTTCTGTTCAAGCGCCATCTAC,0.997 RPM ratio (pull-down/input)
3,GATGATTGTTCTCCCAGCTGATGAATTTGTTCCTTCGAGTAAACAAATTTTCCTAATCTTTCTGTTCAAGCGCCATCTAC,1.11 RPM ratio (pull-down/input)
4,GATGATTGTTCTCCCAGCTGATGAATTGAGGTGTTCGAGTAAACAAATTTTCCTAATCTTTCTGTTCAAGCGCCATCTAC,0.943 RPM ratio (pull-down/input)
5,GATGATTGTTCTCCCAGCTGATGAATTGCACTCGTCGAGTAAACAAATTTTCCTAATCTTTCTGTTCAAGCGCCATCTAC,1.09 RPM ratio (pull-down/input)
6,GATGATTGTTCTCCCAGCTGATGAATTAAAGCCATCGAGTAAACAAATTTTCCTAATCTTTCTGTTCAAGCGCCATCTAC,1.04 RPM ratio (pull-down/input)
7,GATGATTGTTCTCCCAGCTGATGAATTATATTCTTCGAGTAAACAAATTTTCCTAATCTTTCTGTTCAAGCGCCATCTAC,0.925 RPM ratio (pull-down/input)
8,GATGATTGTTCTCCCAGCTGATGAATTTAAGGTCTCGAGTAAACAAATTTTCCTAATCTTTCTGTTCAAGCGCCATCTAC,0.831 RPM ratio (pull-down/input)
9,GATGATTGTTCTCCCAGCTGATGAATTTCGTCAGTCGAGTAAACAAATTTTCCTAATCTTTCTGTTCAAGCGCCATCTAC,0.896 RPM ratio (pull-down/input)
10,GATGATTGTTCTCCCAGCTGATGAATTGATTGGGTCGAGTAAACAAATTTTCCTAATCTTTCTGTTCAAGCGCCATCTAC,0.965 RPM ratio (pull-down/input)
11,GATGATTGTTCTCCCAGCTGATGAATTCCAGGAGTCGAGTAAACAAATTTTCCTAATCTTTCTGTTCAAGCGCCATCTAC,0.717 RPM ratio (pull-down/input)
12,GATGATTGTTCTCCCAGCTGATGAATTTTCAAACTCGAGTAAACAAATTTTCCTAATCTTTCTGTTCAAGCGCCATCTAC,0.965 RPM ratio (pull-down/input)
13,GATGATTGTTCTCCCAGCTGATGAATTGAAGACATCGAGTAAACAAATTTTCCTAATCTTTCTGTTCAAGCGCCATCTAC,0.967 RPM ratio (pull-down/input)
14,GATGATTGTTCTCCCAGCTGATGAATTTTCGGGGTCGAGTAAACAAATTTTCCTAATCTTTCTGTTCAAGCGCCATCTAC,0.76 RPM ratio (pull-down/input)
15,GATGATTGTTCTCCCAGCTGATGAATTGGACCGTTCGAGTAAACAAATTTTCCTAATCTTTCTGTTCAAGCGCCATCTAC,0.846 RPM ratio (pull-down/input)
16,GATGATTGTTCTCCCAGCTGATGAATTGGTAGGATCGAGTAAACAAATTTTCCTAATCTTTCTGTTCAAGCGCCATCTAC,0.922 RPM ratio (pull-down/input)
17,GATGATTGTTCTCCCAGCTGATGAATTGATGATCTCGAGTAAACAAATTTTCCTAATCTTTCTGTTCAAGCGCCATCTAC,0.99 RPM ratio (pull-down/input)
18,GATGATTGTTCTCCCAGCTGATGAATTGGCTTTTTCGAGTAAACAAATTTTCCTAATCTTTCTGTTCAAGCGCCATCTAC,0.947 RPM ratio (pull-down/input)
19,GATGATTGTTCTCCCAGCTGATGAATTACGTATATCGAGTAAACAAATTTTCCTAATCTTTCTGTTCAAGCGCCATCTAC,1.22 RPM ratio (pull-down/input)
20,GATGATTGTTCTCCCAGCTGATGAATTCTAGGCGTCGAGTAAACAAATTTTCCTAATCTTTCTGTTCAAGCGCCATCTAC,0.889 RPM ratio (pull-down/input)
21,GATGATTGTTCTCCCAGCTGATGAATTAACATGCTCGAGTAAACAAATTTTCCTAATCTTTCTGTTCAAGCGCCATCTAC,1.07 RPM ratio (pull-down/input)
